# The other results are listed elsewhere or left out. The data describe in vitro nicking of single-stranded DNA by Rep domains for 1 h at 37 °C with 3 µM enzyme; only the middle of the 90-letter strands is printed. Values are log2 of uncut reads against the no-enzyme pool; uncut sequences lie near 0, cut ones below; no hit call is given. The scaling is to total reads; where an enzyme cuts many sequences, the uncut ones exceed 0.
# Assays:
# Test in all cases: uncleaved DNA left, log2 of reads against the no-enzyme library (log2 ratio); higher = less cleavage (more negative = more Rep cleavage of the k-mer); sequences stand for … in CTCGTCCG…ACCGGAGA
# [1] = test system: T1, Rep nickase domain of Muscovy duck circovirus
# T1 sequence (residues 1-111, tag not shown): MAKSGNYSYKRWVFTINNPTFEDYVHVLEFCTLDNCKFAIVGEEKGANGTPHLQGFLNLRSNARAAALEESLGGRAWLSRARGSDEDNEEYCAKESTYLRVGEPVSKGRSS
# Procedure: (§1)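 A pool of 90-nt single-stranded DNAs with seven random bases just before the constant AC of the nick site (name = the seven bases) was cut by 3 µM recombinant His6-SUMO-tagged Rep nickase domain (300 nM DNA, 50 mM HEPES pH 8.0, 50 mM NaCl, 1 mM MnCl2, 1 h, 37 °C, three replicates). Uncut DNA was amplified and sequenced.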
# [2] = test system: T2, Rep nickase domain of banana bunchy top virus
# T2 sequence (residues 1-94, tag not shown): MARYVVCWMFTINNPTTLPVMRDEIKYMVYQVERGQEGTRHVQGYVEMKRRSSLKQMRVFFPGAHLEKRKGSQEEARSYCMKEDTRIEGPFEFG
# Procedure: as §1
# [3] = test system: T3, Rep nickase domain of cabbage leaf curl virus
# T3 sequence (residues 1-116, tag not shown): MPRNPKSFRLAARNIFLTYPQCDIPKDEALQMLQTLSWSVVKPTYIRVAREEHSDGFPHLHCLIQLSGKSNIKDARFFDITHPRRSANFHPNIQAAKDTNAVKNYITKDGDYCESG
# Procedure: as §1
# [4] = test system: T4, Rep nickase domain of chickpea chlorotic dwarf virus
# T4 sequence (residues 1-124, tag not shown): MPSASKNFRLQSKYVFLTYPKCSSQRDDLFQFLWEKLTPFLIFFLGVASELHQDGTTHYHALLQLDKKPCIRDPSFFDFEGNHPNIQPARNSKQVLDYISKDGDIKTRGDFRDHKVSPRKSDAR
# Procedure: as §1
# [5] = test system: T5, Rep nickase domain of faba bean necrotic yellows virus
# T5 sequence (residues 1-98, tag not shown): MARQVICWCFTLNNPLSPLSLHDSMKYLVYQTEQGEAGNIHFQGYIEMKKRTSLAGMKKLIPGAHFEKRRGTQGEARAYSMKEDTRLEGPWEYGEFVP
# Procedure: as §1
# [6] = test system: T6, Rep nickase domain of maize striate mosaic virus
# T6 sequence (residues 1-117, tag not shown): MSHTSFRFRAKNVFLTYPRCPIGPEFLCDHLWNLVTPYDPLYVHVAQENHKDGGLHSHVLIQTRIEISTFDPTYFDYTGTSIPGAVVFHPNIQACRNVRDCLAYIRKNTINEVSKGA
# Procedure: as §1
# [7] = test system: T7, Rep nickase domain of porcine circovirus 2
# T7 sequence (residues 2-116, tag not shown): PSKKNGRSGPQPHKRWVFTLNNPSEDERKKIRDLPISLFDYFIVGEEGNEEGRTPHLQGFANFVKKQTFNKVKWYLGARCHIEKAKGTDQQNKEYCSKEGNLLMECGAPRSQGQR
# Procedure: as §1
# [8] = test system: T8, Rep nickase domain of tomato golden mosaic virus
# T8 sequence (residues 1-124, tag not shown): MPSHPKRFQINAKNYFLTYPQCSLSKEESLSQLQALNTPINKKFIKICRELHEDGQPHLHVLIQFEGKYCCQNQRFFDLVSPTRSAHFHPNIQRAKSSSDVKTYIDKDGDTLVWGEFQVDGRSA
# Procedure: as §1
# [9] = test system: T9, Rep nickase domain of tomato yellow leaf curl virus
# T9 sequence (residues 1-136, tag not shown): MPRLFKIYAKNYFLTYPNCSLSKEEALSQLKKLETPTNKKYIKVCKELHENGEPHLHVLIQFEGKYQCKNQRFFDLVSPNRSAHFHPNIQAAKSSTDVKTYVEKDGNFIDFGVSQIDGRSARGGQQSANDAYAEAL
# Procedure: as §1
# [10] = test system: T10, Rep nickase domain of wheat dwarf virus
# T10 sequence (residues 1-137, tag not shown): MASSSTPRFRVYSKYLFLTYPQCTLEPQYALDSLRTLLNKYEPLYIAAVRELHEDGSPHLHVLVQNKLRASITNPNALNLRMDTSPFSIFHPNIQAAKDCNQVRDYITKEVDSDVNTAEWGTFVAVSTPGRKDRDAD
# Procedure: as §1
Sequence,uncleaved DNA left (log2) [1],uncleaved DNA left (log2) [2],uncleaved DNA left (log2) [3],uncleaved DNA left (log2) [4],uncleaved DNA left (log2) [5],uncleaved DNA left (log2) [6],uncleaved DNA left (log2) [7],uncleaved DNA left (log2) [8],uncleaved DNA left (log2) [9],uncleaved DNA left (log2) [10]
GGCCAAA,-0.174,0.0265,0.597,1.38,-0.0764,1.68,0.155,-0.00411,0.0634,0.13
GGGCCGA,0.0563,0.25,0.851,1.92,0.1,2.21,0.299,0.188,0.0625,0.231
ACGAGGC,0.0111,0.063,-0.275,-0.112,0.038,-0.955,0.182,0.0452,0.0919,-0.034
AAGGTAC,0.00856,0.0396,-0.066,0.448,0.0802,-0.159,0.145,0.0263,-0.199,0.0538
AACGCCG,-0.0377,0.078,-0.647,-0.313,0.0933,-0.85,0.181,-0.0146,0.0224,-0.0411
TAATTAA,-0.201,0.0137,-2.76,-2.7,0.0186,-1.08,-0.657,-0.716,-0.0273,-1.7
ATTTAGT,-3.26,-2.39,-0.432,-1.24,0.0246,-1.13,-3.66,0.0172,-0.0236,-0.141
GAGCCAC,0.114,0.0799,0.227,0.757,-0.0437,0.794,0.0227,-0.0782,-0.0417,0.0334
GATTGGC,0.0647,0.0318,-0.0966,0.0178,0.0377,-0.676,0.103,-0.00277,0.131,0.0166
ATGAAGC,0.0258,0.0689,-0.246,-0.421,0.133,-1.09,0.144,0.0406,0.157,-0.0658
AGAAACG,0.0125,0.111,-0.654,-0.593,-0.00113,-1.14,0.199,-0.0242,0.0628,-0.0599
CTGTCAA,0.054,0.0684,0.00829,-0.0252,0.0251,-0.432,0.00597,-0.107,-0.0269,0.0769
CCTGGCC,-0.108,-0.123,0.00252,0.319,-0.246,0.311,-0.0807,-0.108,-0.0904,-0.131
TGCGGCC,-0.0141,-0.0604,-0.00319,0.00703,-0.059,-0.502,0.0628,-0.0518,-0.0346,-0.0833
CCATGTA,-0.247,-0.15,-0.614,-1.11,-0.0717,-1.31,-0.315,-0.185,-0.226,-0.263

# Source: the supplement of paper PMC7826260
